# Data reported in PubChem BioAssay AID485360 (National Center for Advancing Translational Sciences (NCATS), 2010).
# Among all 230,000 compounds or so, about 1,500 (0.65%) were called active. The shares of active, inactive and inconclusive entries below differ from those in the screen. Calls follow the shape of the dose curve; as a rule, active = well fitted inhibition curve with a large enough effect; inconclusive = small, poorly fitted or top-dose-only effect; inactive = no such curve, though single readings can be large or run the other way. A potency beside an inconclusive call is a rough fit, not a confirmed value.
# Biological target: Lethal(3)malignant brain tumor-like protein 1 (Homo sapiens) (UniProt Q9Y468)
# Assay: qHTS Assay for the Inhibitors of L3MBTL1; also: nearly all actives have a fitted effect of over 60% in size
# Settings: AlphaScreen L3MBTL1–H3K9me1 peptide binding; activity, negative = inhibition: at 57.1 µM (top of the series)
# Procedure, shortened: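 Read-out is AlphaScreen signal from streptavidin donor and nickel chelate acceptor beads (10 ug/mL final each) bridging L3MBTL1 (50 nM) and biotinylated K9-monomethylated H3(1-15) peptide (75 nM), after 30 min compound exposure at room temperature.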
# % is scaled to controls: 0 for no effect and ±100 for the full control effect; potency is read from the fitted curve at half-maximal effect; tags tell the direction and shape of the fitted curve.
# UniProt Q9Y468, sequence (Q9Y468 whole entry, looked up): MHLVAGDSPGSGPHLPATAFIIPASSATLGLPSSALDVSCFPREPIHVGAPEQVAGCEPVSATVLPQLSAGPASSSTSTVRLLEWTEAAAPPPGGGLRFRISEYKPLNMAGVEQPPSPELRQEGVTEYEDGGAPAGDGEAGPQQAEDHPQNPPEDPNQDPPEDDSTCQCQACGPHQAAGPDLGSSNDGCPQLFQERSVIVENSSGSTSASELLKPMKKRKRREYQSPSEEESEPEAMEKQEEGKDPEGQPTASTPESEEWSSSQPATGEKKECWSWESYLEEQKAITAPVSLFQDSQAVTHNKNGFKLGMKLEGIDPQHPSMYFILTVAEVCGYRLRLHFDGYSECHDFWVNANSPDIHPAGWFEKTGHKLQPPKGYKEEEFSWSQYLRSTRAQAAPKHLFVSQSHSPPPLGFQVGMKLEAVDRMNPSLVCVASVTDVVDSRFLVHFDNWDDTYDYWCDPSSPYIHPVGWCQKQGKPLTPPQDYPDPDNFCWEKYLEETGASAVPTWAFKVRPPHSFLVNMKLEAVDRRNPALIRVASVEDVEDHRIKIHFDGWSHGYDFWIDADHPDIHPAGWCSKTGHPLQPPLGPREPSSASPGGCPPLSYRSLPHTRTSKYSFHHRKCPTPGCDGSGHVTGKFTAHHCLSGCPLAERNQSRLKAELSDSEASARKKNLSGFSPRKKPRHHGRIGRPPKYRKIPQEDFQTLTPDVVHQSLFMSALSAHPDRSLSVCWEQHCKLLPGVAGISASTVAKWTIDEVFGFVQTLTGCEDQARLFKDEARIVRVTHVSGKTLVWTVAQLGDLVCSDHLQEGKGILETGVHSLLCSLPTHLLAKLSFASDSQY
SMILES,"activity, negative = inhibition",Potency
Cc1c(Cl)cccc1NC(=O)CSc1nnc(C)n1-c1ccccc1,inactive: -5.91%,–
CCC(=O)N1CCc2cc(S(=O)(=O)CCC(=O)NCc3ccc4c(c3)OCO4)ccc21,–,"inconclusive: 35.5 µM [inhibitor, single point]"
CCN(CC)CCN1C(=O)C(=O)/C(=C(/O)c2ccc(F)cc2)C1c1ccncc1 (stereo not drawn),inactive: 7.87%,–
CC1=NN(c2ccccc2)C(=O)/C1=C\c1cn(CCC#N)nc1-c1ccc(Cl)cc1,–,"inconclusive: 35.5 µM [inhibitor, single point]"
CC(=O)NCc1ccc(C(=O)CSc2nnc(-c3ccncc3)n2Cc2ccccc2)o1,–,"inconclusive: 35.5 µM [inhibitor, single point]"
Cn1cccc1Cc1nnc(SCC(=O)N2CCCc3ccccc32)n1-c1ccc(F)cc1,–,"inconclusive: 28.2 µM [inhibitor, single point]"
O=C(N/N=C/c1c(O)ccc2ccccc12)c1ccc[n+](CCO)c1,–,active: 35.5 µM
C=C(C)CN=c1scc(C)n1/N=C/c1ccco1,–,"inconclusive: 31.6 µM [inhibitor, single point]"
COc1ccc(NC(=S)N(CCCN2CCN(C)CC2)Cc2cccs2)cc1,inactive: -7.48%,–
N#CC1=C(N)SC(C(=O)c2ccccc2)C1c1cccs1 (stereo not drawn),inactive: -17.8%,–
Cc1ccc(/C(O)=C/c2nc3cc(C)ccc3oc2=O)cc1,inactive: 3.45%,–
CCCCn1c(CNC(=O)C(C)(C)C)nc2ccccc21,–,"inconclusive: 6.31 µM [inhibitor, partial curve]"
O=[N+]([O-])c1ccc(Cl)c(S(=O)(=O)Nc2cccc(-c3ccc(N4CCCC4)nn3)c2)c1,inactive: -20.7%,–
CCc1ccc(N/C(SC)=C(/C#N)C(N)=O)cc1,–,"inconclusive: 5.01 µM [inhibitor, single point]"
CC1Cc2nc(SCC(=O)NCc3ccco3)n(Cc3ccccc3)c(=O)c2S1 (stereo not drawn),–,"inconclusive: 39.8 µM [inhibitor, single point]"
CCC(=O)N(Cc1ccco1)c1nc(-c2ccc(OC)cc2)cs1,–,"inconclusive: 35.5 µM [inhibitor, single point]"
C#CCOCCOCCOCCNc1nc(N2CCN(C(=O)CCCCCCCCCCNC(=O)[C@H](CCCCN)n3cc(CCO)nn3)CC2)nc(N2CCN(C(=O)CCCCCCCCCCNC(=O)[C@@H]([C@H](C)O)n3cc(C)nn3)CC2)n1,inactive: -95.6%,–
Cc1ccc(Nc2cc(C)nc3c(C)ccc([N+](=O)[O-])c23)cc1,–,"inconclusive: 31.6 µM [inhibitor, partial curve]"
O=C(Cn1c(C(F)(F)F)nc2ccccc21)NCCN1CCCC1,–,"inconclusive: 6.31 µM [inhibitor, single point]"
c1ccc2c3c(cc(N4CCOCC4)c2c1)OC1(N2CCOCC2)CCCCC1O3 (stereo not drawn),–,active: 28.2 µM
CCN1/C(=C/C=C/c2sc3ccccc3[n+]2CC)Sc2ccccc21,–,active: 28.2 µM
CC(NC(=O)Cn1cc(C(=O)C2CC2)c2ccccc21)c1ccccc1 (stereo not drawn),inactive: -1.28%,–
O=C(Cn1cnc([N+](=O)[O-])n1)N/N=C/c1ccccc1O,–,"inconclusive: 28.2 µM [inhibitor, single point]"

SMILES,"activity, negative = inhibition",Potency
Oc1ccc(N=Cc2ccc(OCc3ccccc3)cc2)cc1,–,"inconclusive: 25.1 µM [inhibitor, partial curve]"
O=C(c1cc2cc([N+](=O)[O-])ccc2oc1=O)n1cccn1,–,active: 39.8 µM
Cc1ccccc1C(=O)OC1OC(=O)C(Cl)=C1Nc1ccc(C(=O)O)cc1 (stereo not drawn),–,"inconclusive: 0.282 µM [inhibitor, full curve, poor fit]"
O=C(COC(=O)CCc1c[nH]c2ccccc12)NC1CCS(=O)(=O)C1 (stereo not drawn),–,"inconclusive: 39.8 µM [inhibitor, partial curve, poor fit]"
O=C(O)c1cccc(NC(=O)c2ccc3c(c2)C(=O)N(Cc2ccco2)C3=O)c1,inactive: -24.4%,–
COc1cc(NC(=O)COC(=O)c2ccc([N+](=O)[O-])s2)cc(OC)c1OC,–,"inconclusive: 28.2 µM [inhibitor, single point]"
O=C(c1ccc(C(F)(F)F)cc1)N1CCC(=O)N(C(COCc2ccc(C(F)(F)F)cc2)Cc2ccccc2)CC1 (stereo not drawn),inactive: -7.19%,–
O=C(Nc1nnc(C2CC2)s1)C1Cc2ccccc2CN1C(=O)c1ccco1 (stereo not drawn),–,"inconclusive: 25.1 µM [inhibitor, single point]"
CCCNC(=O)c1ccc2snnc2c1,inactive: -0.812%,–
CCN(CC)c1ccc(NC(=O)CSc2nnc3nc(C)cc(C)n23)cc1,–,"inconclusive: 39.8 µM [inhibitor, single point]"
COc1ccc(-n2cccc2/C=C2\C(=N)N3N=C(c4ccco4)SC3=NC2=O)cc1,–,active: 15.8 µM
COc1ccc(-c2csc(N3CCN(c4cc(C)nc5ccccc45)CC3)n2)cc1OC,–,"inconclusive: 31.6 µM [inhibitor, single point]"
Cc1ccccc1CSCC(=O)NCc1ccco1,–,"inconclusive: 39.8 µM [inhibitor, partial curve]"
N#C/C(=C/c1ccc(N2CCOCC2)o1)c1ccc(Cl)cc1,inactive: -5.83%,–
S=c1[nH]nc(-c2ccccn2)n1/N=C/c1ccc(Cl)c(Cl)c1,–,"inconclusive: 25.1 µM [inhibitor, partial curve]"
CO/N=C(\C(=O)N[C@@H]1C(=O)N2C(C(=O)O)=C(COC(N)=O)CS[C@H]12)c1ccco1,inconclusive: -92.6% [inhibitor],–
Cn1c(=O)oc2cc(S(=O)(=O)NCCC(=O)NC3CCCC3)ccc21,–,"inconclusive: 6.31 µM [inhibitor, single point]"
ClCc1csc(-c2ccccc2Cl)n1,–,"inconclusive: 6.31 µM [inhibitor, single point]"
COc1ccc(Oc2nc(-c3ccccn3)ncc2OC)cc1,–,"inconclusive: 17.8 µM [inhibitor, partial curve, poor fit]"
O=C(CC1Sc2ccccc2NC1=O)Nc1cccc(C(=O)O)c1 (stereo not drawn),–,active: 11.2 µM
O=C(Nc1nc(-c2ccccn2)cs1)c1ccc(Cl)s1,–,"inconclusive: 6.31 µM [inhibitor, single point]"
O=[N+]([O-])c1ccc(O)c(/C=N/Nc2nc3ccccc3[nH]2)c1,–,"inconclusive: 31.6 µM [inhibitor, single point]"
CCOC(=O)CN1C(=O)S/C(=C\c2ccc(-c3ccc(C(=O)O)c(Cl)c3)o2)C1=O,–,active: 28.2 µM

SMILES,"activity, negative = inhibition",Potency
Cc1cc(NC(=O)c2c(-c3ccccc3Cl)noc2C)no1,inactive: -2.73%,–
CCCCC(=O)Nc1ccc(NC(=S)NC(=O)CC(C)C)cc1OC,–,"inconclusive: 2.82 µM [inhibitor, full curve]"
O=C(Cn1cnc2c(cnn2-c2ccccc2)c1=O)NCCc1ccccc1,–,"inconclusive: 39.8 µM [inhibitor, single point]"
Cc1ccc(SCC(=O)NC(=O)NCc2ccco2)cc1C,–,"inconclusive: 35.5 µM [inhibitor, single point]"
CCc1ccc2nc(N3C(=O)C(O)=C(C(=O)c4ccco4)C3c3cccs3)sc2c1 (stereo not drawn),–,"inconclusive: 35.5 µM [inhibitor, single point]"
Cc1nc2c(c(=O)n1CCC1=CCCCC1)c1nc3ccccc3nc1n2/N=C/c1ccco1,–,"inconclusive: 31.6 µM [inhibitor, single point]"
Brc1ccc(CNc2cc3c(cc2Br)OCCO3)cc1,–,"inconclusive: 17.8 µM [inhibitor, partial curve]"
COC(=O)[C@@H]1CCCN1Cc1nc(Cc2ccc(OC)c(OC)c2)no1,–,"inconclusive: 39.8 µM [inhibitor, single point]"
O=C1[C@H]2[C@@H](c3ccc(F)cc3)N3C(=O)N(c4ccccc4)C(=O)[C@@]3(Cc3ccccc3)[C@H]2C(=O)N1C1CCCCC1,–,"inconclusive: 6.31 µM [inhibitor, single point]"
O=C(O)c1cccc(Nc2nc(C(F)(F)F)nc3ccccc23)c1,–,"inconclusive: 39.8 µM [inhibitor, single point]"
O=C1c2cccc3c(Nc4ccccc4Cl)c([N+](=O)[O-])cc(c23)C(=O)N1CCO,–,"inconclusive: 22.4 µM [inhibitor, partial curve]"
CCC/C(O)=C1\C(=O)CCCC1=NCCc1c(C)[nH]c2ccc(C)cc12,–,"inconclusive: 28.2 µM [inhibitor, partial curve]"
Cc1ccc(NC(=O)COC(=O)C2CC2(Cl)Cl)cc1C (stereo not drawn),–,"inconclusive: 35.5 µM [inhibitor, single point]"
CCOc1ccccc1NC(=O)CN1C(=O)C(=O)N(Cc2ccco2)C1=O,–,"inconclusive: 12.6 µM [inhibitor, partial curve]"
COc1ccc(NS(=O)(=O)c2cc3c(cc2C)N(C(C)=O)CCO3)c(OC)c1,inactive: -4.95%,–
COC(=O)C(O)(CC(=O)Nc1ccccc1OC)C(F)(F)F (stereo not drawn),–,"inconclusive: 11.2 µM [inhibitor, partial curve]"
COc1ccc(-c2csc(NC(=O)CSCC(=O)Nc3cc(C)on3)n2)cc1OC,inactive: -9.36%,–
Cc1[nH]nc(N)c1N=Nc1ccc(Br)cc1,–,"inconclusive: 25.1 µM [inhibitor, partial curve, poor fit]"
CCOC(=O)C(C#N)C(Cc1ccccc1)c1ccco1 (stereo not drawn),–,"inconclusive: 6.31 µM [inhibitor, single point]"
CCOC(=O)COn1c(=O)c(-c2ccc(OC)c(OC)c2)[n+]([O-])c2ccccc21,–,"inconclusive: 6.31 µM [inhibitor, single point]"
CC(=O)c1cc(Cl)ccc1OCc1cccc(S(=O)(=O)N2CCOCC2)c1,inactive: 9.97%,–
CCc1ccc(NS(=O)(=O)c2ccc3[nH]cc(C(=O)N4CCCCC4)c(=O)c3c2)cc1,–,"inconclusive: 22.4 µM [inhibitor, single point]"
